Test results from patent US6461613B2, “Methods and compositions for the selective regulation of chorionic prostanoids” (priority 1993, dated 2002).
Some values that stand alone complete this part of the results.

Tested on: human term placenta
Assay: Effect of dexamethasone and GnRH on prostanoid release from perifused human term placental explants
Type: cell-based
Conditions: dexamethasone 10^−8 M, seventh hour of incubation
Description: Medium 199 (x2) with Earles' Modified Salts, bicarbonate and L-glutamine without phenol red was purchased from Gibco (Chagrin Falls, Ohio). Penicillin, streptomycin, bovine serum albumin and Indomethacin were obtained from Sigma Chemicals (St. Louis, Mo.). Placental perifusion was performed essentially as described in Example 3.
Samples were stored at −20° C. until assayed for PGE, PGF, PGFM, Tx B2 or 6-keto-PGF1α. Recovery and stability of these prostanoids in this perifusion system and during storage were assessed by spiking the medium with prostanoids and perifusing it through empty chambers and collecting samples as described above. In addition, samples were frozen and thawed repeatedly and re-assayed. Prostanoid recovery and stability were nearly 100%. Thus, no data correction for procedural losses was done. Radioimmunoassays were performed as described in Example 1.
The perifusion system described at Examples 2 and 3 was used in the present study. […] It took one hour for the input medium to pass through the perifusion tubing and chamber and to be collected in the sample tube. Four replicated chambers were perifused with each of the three experimental media, while, in another four replicated chambers, the perifusion was continued with the control Medium 199.
Hormonal values for a given chamber were normalized to the fifth-hour prostanoid release for that chamber, expressed as a percent release over the fifth-hour release. […] Thus, the release of each chamber was related to functional competence at the time of treatment rather than to its mass.
The mean release for replicate chambers from a given placenta for each particular hormone in the presence of GnRH, dexamethasone, or GnRH and dexamethasone at each point was calculated. Similar calculations were done for the control chambers. The mean data for each treatment for the three different placentas were subjected to statistical analyses. Thus, the response for each placenta was weighed equally. Two-way analysis of variance was used to determine if there was significant main effect or interaction.
In addition, the cumulative release for each hormone from each placenta for each treatment was calculated. One-way analysis of variance was used to test for statistically significant effects of treatment. The points of significant variation were determined using Student-Newman-Keuls' test.

`C[C@@H]1C[C@H]2[C@@H]3CCC4=CC(=O)C=C[C@]4(C)[C@@]3(F)[C@@H](O)C[C@]2(C)[C@@]1(O)C(=O)CO` [dexamethasone] was tested, and the “release as percent of control” value (6-keto-PGF1alpha release) was 63%, the “release as percent of control” value (PGF release) was 52% and the “release as percent of control” value (PGFM release) was 65%. The “release as percent of control” value (TxB2 release) was 53%.
